Data published in PubChem BioAssay (NCATS).
The inconclusive results got no clear call from the source; some entries with a clear call stand among them for comparison. For part of these data: Where the call is inconclusive, the potency comes from a doubtful curve fit. For part of these data: A note “side channel” means that the fit belongs to a control or component signal, not to the main read-out. Active and inactive are the calls of the source. Unless noted, calls follow the shape of the dose curve; as a rule, active = well fitted curve in the direction sought with a large enough effect; inconclusive = small, poorly fitted or top-dose-only effect, or another doubt; inactive = no such curve, though single readings can be large; an effect the other way counts as inactive or inconclusive.

Tests used:
[1] = NFAT Signaling Pathway (AID 444; active = well fitted curve in either direction with a large enough effect, not every such curve was filed as active; inconclusive = small, poorly fitted or top-dose-only effect, or another doubt;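 also: carbachol stimulus at about its EC50 of 1 µM final; % is scaled to controls: 0 for no effect and ±100 for the full control effect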); settings: Jurkat NFAT-bla M1, carbachol, beta-lactamase ratio, 5 h; at 38 µM (top of the series)
Method in brief: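 Jurkat cells with NFAT-driven β-lactamase reporter and co-expressed M1 receptor, stimulated with carbachol (final 1 uM, ~EC50), compound titration, 5 h at 37 °C. CCF4 loaded 1 h at RT; 460/530 nm ratio gave %activity and AC50.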

[2] = qHTS Assay for Identification of Small Molecule Antagonists for NFkB Signaling Pathway (AID 895; active = well fitted inhibition curve with a large enough effect in the signal ratio, with a control signal flat, not every such curve was filed as active; inconclusive = small, poorly fitted or top-dose-only effect, or effect the other way, or a change in a side signal; the % refers to the signal ratio; also: potency is read from the fitted curve at half-maximal effect); settings: NFkB beta-lactamase reporter cells, FRET ratio 460/530, stimulated with 10 pM TNF alpha; activity change, negative = inhibition: at 38.3 µM (top of the series)
Method in brief: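 ME-180 NFkB-bla cells (beta-lactamase under NFkB response element), plated overnight, treated with compound then 10 pM TNF alpha (about EC50) for 5 hrs at 37 C. LiveBLAzer FRET read at 460/530 nm emission, 405 nm excitation.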

[3] = qHTS Assay for Identification of Small Molecule Antagonists for Thrombopoietin (TPO) Signaling Pathway (AID 918); settings: TPO-dependent cell signaling reporter, antagonist mode; activity change, negative = inhibition: at 38.5 µM (top of the series); also: nearly all actives have a fitted effect of over 60% in size
Method in brief: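 Luminescence read-out: GPIIb-promoter luciferase in Ba/F3 cells carrying human TPO receptor. Compounds added with 26 pM TPO (EC50), 24 hrs, 37 C, 5% CO2; cells deprived of IL-3 overnight beforehand. Inhibition of signal scored.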

[4] = qHTS Assay for Identification of Small Molecule Agonists for NFkB Signaling Pathway (AID 928; calls by dose curve); settings: NFkB beta-lactamase reporter cells, blue/green ratio
Method in brief: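 Activators were sought with TNF alpha co-added at 10 pM final (its EC50) to beta-lactamase reporter cells. Cells were plated in OPTI MEM with 0.5% FBS and exposed for 5 hrs at 37 C. The FRET substrate ratio was read at 460 and 530 nm.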

[5] = biological target: Muscarinic acetylcholine receptor M1 (Rattus norvegicus) (UniProt P08482); experiment: qHTS Assay for Antagonists of Acetylcholine Muscarinic M1 Receptor: Kinetic Measurement of Intracellular Calcium Response (AID 943); also: potency is read from the fitted curve at half-maximal effect; nearly all actives have a fitted effect of over 75% in size
Method in brief: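 Read-out: peak over basal Fluo-4 fluorescence, kinetic at 1 Hz for 4 min after EC80 carbachol (100 nM final). Rat M1-CHO cells, dye loaded 1 h at 37C, compound added 10 min before agonist.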

[6] = biological target: Muscarinic acetylcholine receptor M1 (Rattus norvegicus) (UniProt P08482); experiment: qHTS Assay for Antagonists of Acetylcholine Muscarinic M1 Receptor: Measurement of IP-One Response (AID 944); also: potency is read from the fitted curve at half-maximal effect; nearly all actives have a fitted effect of over 75% in size
[7] = biological target: Endonuclease 4 (Escherichia coli (strain K12)) (UniProt P0A6C1); experiment: Counterscreen for APE1 Inhibitors: qHTS Validation Assay for Inhibitors of Endonuclease IV (AID 1708); also: potency is read from the fitted curve at half-maximal effect
Method in brief: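 Read-out: fluorescence rise (ex 525/em 598 nm) from incision of a TAMRA/BHQ-2 double-stranded THF abasic-site substrate (50 nM), measured kinetically; third-minus-first read difference gave reaction progress. Enzyme 2 nM.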

[8] = qHTS for differential inhibitors of proliferation of Plasmodium falciparum line 7G8 (AID 1815);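 also: potency is read from the fitted curve at half-maximal effect; parasite growth measured after three days of incubation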
[9] = qHTS for differential inhibitors of proliferation of Plasmodium falciparum line GB4 (AID 1816); settings: Potency: Plasmodium falciparum GB4 proliferation inhibition;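 also: potency is read from the fitted curve at half-maximal effect; parasite growth measured after 72 h incubation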
[10] = qHTS for differential inhibitors of proliferation of Plasmodium falciparum line 3D7 (AID 1876); also: potency is read from the fitted curve at half-maximal effect
[11] = qHTS for differential inhibitors of proliferation of Plasmodium falciparum line D10 (AID 1877);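 also: potency is read from the fitted curve at half-maximal effect; parasites grown with compound for 72 h before DNA staining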
[12] = qHTS for differential inhibitors of proliferation of Plasmodium falciparum line Dd2 (AID 1882); settings: Potency: Plasmodium falciparum Dd2 proliferation inhibition; also: potency is read from the fitted curve at half-maximal effect; nearly all actives have a fitted effect of over 65% in size
Method in brief: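 RBC culture, 0.3% parasitemia / 2.5% Hct final; cpd added by pin tool in DMSO; 72 h, 37 C, 5% CO2; lysis buffer + SYBR Green I, o/n RT dark; FI 485/535; norm. to artemisinin 0.29 uM and DMSO.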

[13] = biological target: RecQ-like DNA helicase BLM (Homo sapiens) (UniProt P54132); experiment: qHTS Validation Assay for Inhibitors of Bloom's syndrome helicase (BLM) (AID 2364); also: potency is read from the fitted curve at half-maximal effect
Method in brief: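 50 nM BLM preincubated 15 min at room temperature with compound in pH 8.0 Tris buffer containing 2.5 ug/ml poly(dI-dC); started with 200 nM TAMRA/BHQ-2 forked duplex and 2 mM ATP (final). Unwinding read as TAMRA fluorescence increase, two reads 2 h apart.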

[14] = Validation screen for small molecules that induce DNA re-replication in MCF 10A normal breast cells (AID 463097); also: 0% is about no effect; nearly all actives have a fitted effect of over 60% in size
Method in brief: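 Readout: Hoechst nuclear fluorescence intensity, 405 ex / 500-530 em, by scanning plate imager; re-replication scored as increase in nuclei with elevated DNA content. Cells exposed to compound 48 hr, 37 C, 5% CO2 beforehand.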

[15] = biological target: DNA polymerase III PolC-type (Bacillus subtilis (strain 168)) (UniProt P13267); experiment: qHTS Validation Assay for the Inhibitors of DNA Replication in Gram-Positive Bacteria (AID 485295);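 also: PicoGreen fluorescence of double-stranded DNA made on primed circular M13 template; 0% = DMSO wells and -100% = EDTA-quenched background wells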
Method in brief: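 Reconstituted B. subtilis holoenzyme (Pol III, beta clamp, SSB, primase) was preincubated with compound at room temperature, then given single-stranded circular M13Gori plus dNTPs and NTPs. EDTA-containing PicoGreen stopped the reaction, and dsDNA product was read by fluorescence.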

[16] = qHTS Validation Assay to Find Inhibitors of Chronic Active B-Cell Receptor Signaling (AID 485345; active = well fitted curve in the direction sought with a large enough effect in the main read-out, with a control signal flat, not every such curve was filed as active; inconclusive = small, poorly fitted or top-dose-only effect, or effect the other way, or a change in a side signal; inactive = no such curve, though single readings can be large or run the other way;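 also: 0% = untreated basal cells and 100% = 10 µM MG-132 proteasome inhibitor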); settings: ABC-DLBCL cells, chronic BCR signaling reporter; activity change: CBG luciferase, at 46.1 µM (top of the series)
Method in brief: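 TMD8 ABC-DLBCL cells stably carrying doxycycline-inducible IkappaBalpha–green luciferase fusion plus unfused red luciferase; compounds 46 uM to 3 nM, 4 h at 37C with doxycycline. Corrected green/red luminescence ratio normalized to 10 uM MG-132 and basal cell wells; curves fitted.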

[17] = biological target: Chromobox protein homolog 1 (Homo sapiens) (UniProt P83916); experiment: qHTS Validation Assay for Inhibitors of HP1-beta Chromodomain Interactions with Methylated Histone Tails (AID 488953); also: potency is read from the fitted curve at half-maximal effect; nearly all actives have a fitted effect of over 50% in size
Method in brief: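 AlphaScreen proximity readout: streptavidin donor and Ni-chelate acceptor beads, 10 ug/mL final, 30 min dark, RT. Complex of 50 nM HP1-beta and 50 nM b-H3(1-18)K9me3 formed 30 min, then compound-treated 30 min; PBS pH 7.4/0.01% Tween-20.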

[18] = biological target: D(1A) dopamine receptor (Homo sapiens) (UniProt P21728); experiment: HTS Assay for Allosteric Agonists of the Human D1 Dopamine Receptor: Primary Screen for Antagonists (AID 488983); settings: D1 receptor cell assay, antagonist mode, qHTS titration; activity change, negative = inhibition: at 41.8 µM (top of the series);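 also: calcium flux response to an EC80 dopamine challenge measured with no-wash dye; potency is read from the fitted curve at half-maximal effect; nearly all actives have a fitted effect of over 65% in size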
Method in brief: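 Calcium flux readout, no-wash dye, inducible HEK293 T-REx D1 line (force-coupled). Compound added after 10 s baseline, 180 s kinetic read; then dopamine at EC80, further 180 s read.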

[19] = biological target: ATPase family AAA domain-containing protein 5 (Homo sapiens) (UniProt Q96QE3); experiment: Validation screen for small molecules that inhibit ELG1-dependent DNA repair in human embryonic kidney (HEK293T) cells expressing luciferase-tagged ELG1 (AID 493107); settings: HEK293T ELG1-luciferase level, luminescence, 5-fluorouridine co-treatment, 16 h; activity change, negative = decrease: at 46.1 µM (top of the series); also: potency is read from the fitted curve at half-maximal effect; nearly all actives have a fitted effect of over 70% in size
Method in brief: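 ELG1-luciferase HEK293T reporter; 5-fluorouridine + compound/DMSO, 16 hr, 37 °C, 5% CO2; ONE-Glo 30 min RT; luminescence read, qHTS format.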

[20] = biological target: phosphoglycerate mutase (Leishmania major) (UniProt Q4Q090); experiment: qHTS Validation Assay to Find Inhibitors of Phosphoglycerate Mutase (AID 504548); settings: Potency: inhibition qHTS; also: % is scaled to controls: 0 for no effect and ±100 for the full control effect
Method in brief: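 Lm PGAM 1.25nM final; 100 mM TEA pH 7.6, 5 mM MgCl2, 0.01% Tween-20; 45 min RT; Kinase-GloPlus, 10 min; end-point luminescence. Enzyme-free wells as negative controls.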

[21] = qHTS for Inhibitors of ATXN expression: Validation (AID 588378); also: % is scaled to controls: 0 for no effect and ±100 for the full control effect; nearly all actives have a fitted effect of over 75% in size
Method in brief: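 Luminescence from an ATXN2-FFLuc reporter in HEK293 cells served as read-out after 24 h compound treatment at 37 degrees C; CellTiter-Fluor fluorescence was recorded first to assess viability.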

[22] = biological target: Glutaminase kidney isoform, mitochondrial (Homo sapiens) (UniProt O94925); experiment: qHTS for Inhibitors of Glutaminase (GLS): LOPAC Validation (AID 624146); also: potency is read from the fitted curve at half-maximal effect; nearly all actives have a fitted effect of over 60% in size
Method in brief: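 hKGA in 45 mM KH2PO4 (pH 8.2), 0.02% Tween-20 with compound, then 1mM L-Glutamine (stock as added) plus glutamate oxidase/HRP/Amplex red coupling mix. Fluorescence read initially and after 30 min at RT; signal change reflects glutamate formation.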

[23] = qHTS of Trypanosoma Brucei Inhibitors: LOPAC Validation (AID 624147); also: potency is read from the fitted curve at half-maximal effect
Method in brief: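 Activity of T. brucei pyruvate kinase was followed by Kinase-Glo Plus luminescence after the enzyme reacted 45 min at room temperature with 130 uM ADP (final) and substrate. Test compounds were added before ADP at multiple concentrations.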

[24] = biological target: Atrial natriuretic peptide receptor 2 (Homo sapiens) (UniProt P20594); experiment: Natriuretic polypeptide receptor (hNpr2) antagonism - Pilot subtype selectivity assay (AID 1347050; calls by dose curve; also: potency is read from the fitted curve at half-maximal effect)
Method in brief: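 Luminescence from a genetically encoded cGMP luciferase biosensor in hNpr2-expressing HEK293 cells is read before and 20 min after adding 1 nM hNppC. Test compounds, in interplate 1:5 titrations, are added 30-50 min ahead of the agonist.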

[25] = biological target: Tyrosine-protein phosphatase non-receptor type substrate 1 (Homo sapiens) + Leukocyte surface antigen CD47 (Homo sapiens) (UniProt P78324+Q08722); experiment: CD47-SIRPalpha protein protein interaction - HTRF assay qHTS validation (AID 1347058; active = well fitted curve in the direction sought with a large enough effect in the signal ratio, not every such curve was filed as active; inconclusive = small, poorly fitted or top-dose-only effect, or effect the other way, or a change in a side signal; inactive = no such curve, though single readings can be large or run the other way; the % refers to the signal ratio; also: potency is read from the fitted curve at half-maximal effect)
Method in brief: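 Soluble extracellular domains (6His-CD47, Avi-tag-biotinylated SIRPalpha) in PBS pH 7.4 with 0.05% IGEPAL CA-630. Compounds were preincubated 30 min at RT with CD47 and anti-His-Eu, then SIRPalpha and SAV-XL665 were added. TR-FRET 665/615 ratio.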

[26] = Primary qHTS for small molecule stabilizers of the endoplasmic reticulum resident proteome: Secreted ER Calcium Modulated Protein (SERCaMP) assay (AID 1508630); settings: SH-SY5Y GLuc-SERCaMP (Gaussia luciferase released on ER calcium loss) secretion, thapsigargin, luminescence; activity change, negative = inhibition: at 38.4 µM (top of the series) unless noted; also: potency is read from the fitted curve at half-maximal effect
Method in brief: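 The SH-SY5Y reporter protocol was run at 3 concentrations up to 38.3 uM (primary) or 11 concentrations (follow-up): 16 h compound, 100 nM thapsigargin for 4 h, then extracellular luciferase luminescence.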

Papain (Carica papaya) = Papain (Carica papaya) (UniProt P00784); experiment: Primary qHTS assay for inhibitors of the protease papain (AID 1645873)
Tags tell the direction and shape of the fitted curve or compound fluorescence and quenching.

Sequence of UniProt P08482 (P08482 whole entry, looked up): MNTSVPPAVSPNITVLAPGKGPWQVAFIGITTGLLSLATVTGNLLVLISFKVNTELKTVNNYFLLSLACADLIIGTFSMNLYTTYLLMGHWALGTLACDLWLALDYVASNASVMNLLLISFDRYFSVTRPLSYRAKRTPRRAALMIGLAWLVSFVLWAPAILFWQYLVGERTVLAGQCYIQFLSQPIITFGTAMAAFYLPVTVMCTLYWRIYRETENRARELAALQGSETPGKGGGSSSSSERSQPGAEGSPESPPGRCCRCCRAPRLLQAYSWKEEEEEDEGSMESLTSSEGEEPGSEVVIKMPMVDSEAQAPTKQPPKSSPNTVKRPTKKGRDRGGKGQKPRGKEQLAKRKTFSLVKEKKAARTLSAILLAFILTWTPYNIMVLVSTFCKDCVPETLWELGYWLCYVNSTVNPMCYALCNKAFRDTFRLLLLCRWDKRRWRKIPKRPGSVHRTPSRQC
Sequence of UniProt P00784 (P00784 whole entry, looked up): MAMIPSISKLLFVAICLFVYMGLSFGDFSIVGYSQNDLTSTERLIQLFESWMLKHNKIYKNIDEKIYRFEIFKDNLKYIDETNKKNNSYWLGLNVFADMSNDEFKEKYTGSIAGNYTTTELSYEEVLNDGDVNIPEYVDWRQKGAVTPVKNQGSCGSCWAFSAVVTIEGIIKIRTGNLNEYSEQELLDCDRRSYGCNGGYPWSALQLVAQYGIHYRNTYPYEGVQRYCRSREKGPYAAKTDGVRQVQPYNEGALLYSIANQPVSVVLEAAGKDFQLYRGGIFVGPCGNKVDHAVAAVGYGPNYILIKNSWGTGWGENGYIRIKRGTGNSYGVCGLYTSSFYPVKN
Sequence of UniProt P20594 (P20594 whole entry, looked up): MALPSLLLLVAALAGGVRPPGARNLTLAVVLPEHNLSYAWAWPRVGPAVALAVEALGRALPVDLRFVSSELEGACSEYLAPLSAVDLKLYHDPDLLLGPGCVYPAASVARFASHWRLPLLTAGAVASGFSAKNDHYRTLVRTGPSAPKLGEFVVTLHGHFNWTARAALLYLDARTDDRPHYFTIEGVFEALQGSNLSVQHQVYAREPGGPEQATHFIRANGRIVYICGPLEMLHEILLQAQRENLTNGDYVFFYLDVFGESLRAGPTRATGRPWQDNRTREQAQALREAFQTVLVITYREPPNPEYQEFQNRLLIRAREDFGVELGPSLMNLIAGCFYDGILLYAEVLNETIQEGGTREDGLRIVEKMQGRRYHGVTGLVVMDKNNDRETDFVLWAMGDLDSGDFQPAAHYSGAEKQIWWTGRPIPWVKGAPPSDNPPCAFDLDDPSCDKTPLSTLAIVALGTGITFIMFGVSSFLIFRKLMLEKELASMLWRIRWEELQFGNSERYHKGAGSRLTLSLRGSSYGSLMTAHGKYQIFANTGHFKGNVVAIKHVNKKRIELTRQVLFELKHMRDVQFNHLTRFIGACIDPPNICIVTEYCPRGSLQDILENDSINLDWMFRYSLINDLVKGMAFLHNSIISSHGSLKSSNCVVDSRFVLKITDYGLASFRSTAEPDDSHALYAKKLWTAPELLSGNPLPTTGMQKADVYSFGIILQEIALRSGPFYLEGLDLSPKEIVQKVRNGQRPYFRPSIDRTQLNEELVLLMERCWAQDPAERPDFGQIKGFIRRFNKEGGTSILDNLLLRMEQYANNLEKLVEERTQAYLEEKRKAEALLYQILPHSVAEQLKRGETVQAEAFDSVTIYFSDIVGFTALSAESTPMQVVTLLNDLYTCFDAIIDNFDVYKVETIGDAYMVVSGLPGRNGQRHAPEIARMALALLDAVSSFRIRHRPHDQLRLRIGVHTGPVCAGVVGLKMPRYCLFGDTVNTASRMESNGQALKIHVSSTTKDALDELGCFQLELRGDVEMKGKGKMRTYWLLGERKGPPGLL
Sequence of UniProt P54132 (P54132 whole entry, looked up): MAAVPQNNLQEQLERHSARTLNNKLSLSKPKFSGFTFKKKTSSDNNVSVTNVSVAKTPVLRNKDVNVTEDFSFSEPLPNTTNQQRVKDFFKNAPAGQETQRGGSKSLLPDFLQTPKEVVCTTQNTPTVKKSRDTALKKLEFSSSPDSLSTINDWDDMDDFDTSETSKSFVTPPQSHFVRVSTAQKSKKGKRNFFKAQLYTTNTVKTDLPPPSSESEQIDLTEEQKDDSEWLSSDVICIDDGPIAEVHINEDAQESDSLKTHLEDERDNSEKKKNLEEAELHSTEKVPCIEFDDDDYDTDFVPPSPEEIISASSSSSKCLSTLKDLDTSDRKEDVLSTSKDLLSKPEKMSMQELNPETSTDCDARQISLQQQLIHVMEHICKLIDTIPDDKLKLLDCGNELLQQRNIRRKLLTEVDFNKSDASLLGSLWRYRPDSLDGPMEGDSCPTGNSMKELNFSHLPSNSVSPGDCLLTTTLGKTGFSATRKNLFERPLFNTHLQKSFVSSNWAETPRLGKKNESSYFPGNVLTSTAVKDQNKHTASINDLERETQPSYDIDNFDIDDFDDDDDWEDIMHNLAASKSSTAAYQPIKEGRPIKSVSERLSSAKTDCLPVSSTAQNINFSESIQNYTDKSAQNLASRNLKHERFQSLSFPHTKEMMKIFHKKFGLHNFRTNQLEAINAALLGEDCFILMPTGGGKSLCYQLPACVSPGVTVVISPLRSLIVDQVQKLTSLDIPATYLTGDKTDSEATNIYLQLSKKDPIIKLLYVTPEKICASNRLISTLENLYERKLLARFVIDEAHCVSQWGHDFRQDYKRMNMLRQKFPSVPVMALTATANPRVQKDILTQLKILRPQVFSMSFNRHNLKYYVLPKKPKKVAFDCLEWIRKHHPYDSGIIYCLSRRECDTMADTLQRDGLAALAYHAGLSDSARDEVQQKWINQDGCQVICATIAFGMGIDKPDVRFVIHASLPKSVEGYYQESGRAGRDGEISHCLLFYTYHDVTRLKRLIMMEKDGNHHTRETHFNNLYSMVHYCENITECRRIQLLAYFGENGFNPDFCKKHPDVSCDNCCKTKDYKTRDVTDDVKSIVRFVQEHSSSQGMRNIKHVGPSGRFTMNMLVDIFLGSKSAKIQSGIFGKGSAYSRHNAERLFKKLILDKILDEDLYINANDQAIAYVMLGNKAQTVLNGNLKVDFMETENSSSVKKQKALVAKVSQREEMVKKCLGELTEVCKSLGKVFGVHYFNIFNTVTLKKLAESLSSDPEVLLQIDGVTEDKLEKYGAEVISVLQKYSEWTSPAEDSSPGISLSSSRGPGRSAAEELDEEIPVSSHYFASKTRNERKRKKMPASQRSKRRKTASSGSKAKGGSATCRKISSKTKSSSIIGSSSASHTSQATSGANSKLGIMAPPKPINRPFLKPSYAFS
Sequence of UniProt Q4Q090 (Q4Q090 1-553): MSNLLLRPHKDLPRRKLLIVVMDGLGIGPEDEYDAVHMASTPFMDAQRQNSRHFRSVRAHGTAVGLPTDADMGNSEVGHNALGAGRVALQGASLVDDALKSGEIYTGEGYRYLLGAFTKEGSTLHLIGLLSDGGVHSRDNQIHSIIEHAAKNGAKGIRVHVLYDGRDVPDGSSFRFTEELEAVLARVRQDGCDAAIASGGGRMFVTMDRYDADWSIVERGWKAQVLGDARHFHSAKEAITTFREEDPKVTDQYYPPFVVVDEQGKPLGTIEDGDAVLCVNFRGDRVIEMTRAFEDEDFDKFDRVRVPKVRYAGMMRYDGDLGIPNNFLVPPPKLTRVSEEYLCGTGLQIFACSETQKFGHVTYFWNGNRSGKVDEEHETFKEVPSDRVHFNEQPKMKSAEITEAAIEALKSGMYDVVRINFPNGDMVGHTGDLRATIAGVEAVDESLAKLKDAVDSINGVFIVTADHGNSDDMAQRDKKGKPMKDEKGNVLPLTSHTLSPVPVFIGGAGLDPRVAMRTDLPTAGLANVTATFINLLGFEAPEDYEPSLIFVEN
Sequence of UniProt P21728 (P21728 whole entry, looked up): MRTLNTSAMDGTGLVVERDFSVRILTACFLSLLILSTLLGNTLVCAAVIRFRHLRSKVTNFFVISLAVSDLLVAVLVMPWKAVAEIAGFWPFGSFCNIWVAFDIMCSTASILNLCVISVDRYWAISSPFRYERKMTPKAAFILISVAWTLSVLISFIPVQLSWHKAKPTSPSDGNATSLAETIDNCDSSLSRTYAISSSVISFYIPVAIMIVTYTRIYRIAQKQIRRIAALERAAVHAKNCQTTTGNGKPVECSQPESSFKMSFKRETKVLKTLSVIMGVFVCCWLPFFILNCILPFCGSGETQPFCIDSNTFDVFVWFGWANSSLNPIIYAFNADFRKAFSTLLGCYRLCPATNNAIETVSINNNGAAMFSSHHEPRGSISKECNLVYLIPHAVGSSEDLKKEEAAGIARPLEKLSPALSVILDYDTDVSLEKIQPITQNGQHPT
Sequence of UniProt O94925 (O94925 whole entry, looked up, canonical isoform): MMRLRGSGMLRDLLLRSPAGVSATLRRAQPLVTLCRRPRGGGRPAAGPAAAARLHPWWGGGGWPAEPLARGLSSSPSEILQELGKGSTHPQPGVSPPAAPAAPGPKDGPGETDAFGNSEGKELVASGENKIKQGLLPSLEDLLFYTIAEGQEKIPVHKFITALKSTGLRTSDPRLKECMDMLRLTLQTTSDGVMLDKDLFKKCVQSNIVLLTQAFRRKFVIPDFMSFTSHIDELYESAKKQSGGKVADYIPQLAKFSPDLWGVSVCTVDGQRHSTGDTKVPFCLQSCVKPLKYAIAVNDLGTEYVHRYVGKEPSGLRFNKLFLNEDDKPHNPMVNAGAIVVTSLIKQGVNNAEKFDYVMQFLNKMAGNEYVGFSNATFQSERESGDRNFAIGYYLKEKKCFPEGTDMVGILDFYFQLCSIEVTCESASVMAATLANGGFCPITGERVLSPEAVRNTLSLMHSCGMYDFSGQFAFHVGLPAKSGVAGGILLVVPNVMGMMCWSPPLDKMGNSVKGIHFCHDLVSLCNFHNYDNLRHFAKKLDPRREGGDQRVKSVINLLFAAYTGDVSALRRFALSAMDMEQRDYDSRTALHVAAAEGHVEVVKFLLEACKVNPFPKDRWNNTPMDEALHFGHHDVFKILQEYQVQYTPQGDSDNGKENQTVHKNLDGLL

Cc1ccc2c(c1)C(N1CCN(C)CC1)=Nc1cccnc1N2
inactive: Potency [14] | Potency [15] | Potency [20] | Potency [21]
active: Potency [2] 11.2 µM | Potency [5] 0.0355 µM | Potency [6] 0.0794 µM | Potency [18] 4.47 µM
inconclusive: activity change, negative = inhibition [1] -65.9% [inhibitor] | activity change, negative = inhibition [3] 1.21% [phenotype inactive] | Potency [4] 11.2 µM [inhibitor, partial curve] | Potency [7] 14.1 µM [inhibitor, partial curve] | Potency [8] 12.6 µM [inhibitor, single point] | Potency [9] 12.6 µM [inhibitor, partial curve] | Potency [10] 8.91 µM [inhibitor, partial curve] | Potency [11] 12.6 µM [inhibitor, partial curve] | Potency [12] 8.91 µM [inhibitor, partial curve] | Potency [13] 10 µM [inhibitor, partial curve] | activity change [16] -34.9% | Potency [17] 50.1 µM [inhibitor, partial curve] | Potency [19] 2.59 µM [activator, full curve, poor fit] | Potency [22] 20 µM [inhibitor, single point] | Potency [23] 37.9 µM [inhibitor, partial curve, poor fit] | Potency [24] 7.36 µM [inhibitor, partial curve] | Potency [25] 16.5 µM [side channel, falling, single point] | Potency [26] 25.1 µM [inhibitor, single point] | Potency (Papain (Carica papaya)) 12.6 µM [inhibitor, partial curve]
